# Laboratory results from the supplement of paper PMC11880418.
# Structures can show the parent of a compound that is named as a salt. Some of the results follow. The data scatter; read single values as rough.
# Tested on: T84
# Assay: ALDHbr (CSC) cell proportion score relative to DMSO vehicle (ratio to DMSO); breast (SUM159) / gastric (MKN45) / pancreatic (PANC1) / colon cancer lines; ALDHbr cells have high ALDH activity and are rich in cancer stem cells (CSC); higher = more CSC (ALDHbr) cells remaining
# Details: 10 µM; 72 h
# 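Note: High-content imaging of ALDEFLUOR-stained cells with Hoechst-labelled nuclei in 384-well plates, triplicate wells, scored as Z-score against 0.1% DMSO vehicle, negative meaning fewer ALDHbr cells.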
row,Structure (SMILES),ALDHbr
1,CC(=O)O[C@]1(C(C)=O)CC[C@H]2[C@@H]3C=C(Cl)C4=CC(=O)CC[C@]4(C)[C@H]3CC[C@@]21C [Chlormadinone acetate],0.741
2,O=c1oc2ccccc2c(O)c1Cc1c(O)c2ccccc2oc1=O [Dicumarol],1.15
3,CC(C)(C)NCC(O)COc1cccc2c1CCC(=O)N2 (stereo not drawn) [Carteolol hydrochloride],0.922
4,CN(CCCCCCCCCCN(C)C(=O)Oc1cccc([N+](C)(C)C)c1)C(=O)Oc1cccc([N+](C)(C)C)c1 [Demecarium bromide],0.775
5,Clc1ccc(CSC(Cn2ccnc2)c2ccc(Cl)cc2Cl)cc1 (stereo not drawn) [Sulconazole nitrate],0.707
6,COc1ccc(C(=O)NCc2ccc(OCCN(C)C)cc2)cc1OC [Itopride],0.956
7,CN(C)C(=N)NC(=N)N [Metformin hydrochloride],0.889
8,CN(C)CCN(Cc1cccs1)c1ccccn1 [Methapyrilene hydrochloride],1.02
9,Cn1c([N+](=O)[O-])cnc1COC(N)=O [Ronidazole],0.883
10,O=C(O)c1ccccc1Nc1cccc(C(F)(F)F)c1 [Flufenamic acid],0.955
11,Clc1ccc(C(Cn2ccnc2)OCc2csc3c(Cl)cccc23)c(Cl)c1 (stereo not drawn) [Sertaconazole nitrate],0.565
12,C=CC1=C(C(=O)O)N2C(=O)[C@@H](NC(=O)/C(=N\O)c3csc(N)n3)[C@H]2SC1 [Cefdinir],0.92
13,Cc1c(C)c2c(c(C)c1O)CCC(C)(COc1ccc(CC3SC(=O)NC3=O)cc1)O2 (stereo not drawn) [Troglitazone],0.721
14,CNCC(O)c1ccc(OC(=O)C(C)(C)C)c(OC(=O)C(C)(C)C)c1 (stereo not drawn) [Dipivefrin hydrochloride],1.04
15,C[C@]12C=CC(=O)C=C1CC[C@H]1[C@@H]3C[C@@H](O)[C@](O)(C(=O)CO)[C@@]3(C)C[C@H](O)[C@@]12F [Triamcinolone],0.801
16,CCN(CC)CCOC(=O)C(c1ccccc1)C1CCCCC1 (stereo not drawn) [Drofenine hydrochloride],0.951
17,O=C1CC2(CCCC2)CC(=O)N1CCCCN1CCN(c2ncccn2)CC1 [Buspirone hydrochloride],0.834

row,Structure (SMILES),ALDHbr
1,CC(C)(C)NCC(O)c1ccc(O)c(CO)c1 (stereo not drawn) [Salbutamol],0.959
2,NC1CCN(c2nc3c(cc2F)c(=O)c(C(=O)O)cn3-c2ccc(F)cc2F)C1 (stereo not drawn) [Tosufloxacin hydrochloride],1.03
3,Cc1ccc(C)c(OCCCC(C)(C)C(=O)O)c1 [Gemfibrozil],0.861
4,N#Cc1ccc(C(c2ccc(C#N)cc2)n2cncn2)cc1 [Letrozole],0.91
5,CN/C(=N\CCSCc1nc[nH]c1C)NC#N [Cimetidine],0.841
6,C[C@@H](O)[C@H]1C(=O)N2C(C(=O)O)=C(SCCNC=N)C[C@H]12 [Imipenem],0.932
7,COC(c1ccccc1)(c1ccccc1)[C@H](Oc1nc(C)cc(C)n1)C(=O)O [Ambrisentan],0.971
8,CN(C)CCOc1ccc(/C(=C(/CCCl)c2ccccc2)c2ccccc2)cc1 [Toremifene],0.586
9,CN[C@@H]1[C@H](O[C@H]2[C@H](O[C@H]3[C@H](O)[C@@H](O)[C@H](NC(=N)N)[C@@H](O)[C@@H]3NC(=N)N)O[C@@H](C)[C@]2(O)CO)O[C@@H](CO)[C@H](O)[C@H]1O [Dihydrostreptomycin sulfate],1.06
10,O=C(O)CCNC(=O)c1ccc(/N=N/c2ccc(O)c(C(=O)O)c2)cc1 [Balsalazide Sodium],0.981
11,Cc1cccc(Nc2ccncc2S(=O)(=O)NC(=O)NC(C)C)c1 [Torsemide],1.16
12,CN1[C@@H]2CC[C@H]1C[C@@H](OC(=O)c1c[nH]c3ccccc13)C2 [Tropisetron hydrochloride],0.94
13,Nc1nc2[nH]cc(CCc3ccc(C(=O)N[C@@H](CCC(=O)O)C(=O)O)cc3)c2c(=O)[nH]1 [Pemetrexed disodium],0.408
14,C[C@H](Cc1cc2c(c(C(N)=O)c1)N(CCCO)CC2)NCCOc1ccccc1OCC(F)(F)F [Silodosin],1
15,NC(N)=Nc1nc(CSCC/C(N)=N/S(N)(=O)=O)cs1 [Famotidine],0.846
16,CCNC(=O)CCC/C=C\C[C@@H]1[C@@H](/C=C/[C@@H](O)CCc2ccccc2)[C@H](O)C[C@@H]1O [Bimatoprost],1.06
